Columns and labels:
[1] = target: CD3 (CD3-TCR complex) on Promega PD1 effector cells (Jurkat T cells) (human); assay: cell-based or functional assay
[2] = target: MUC17 on LS174T cells (human, UniProt Q685J3); assay: flow cytometry on LS174T cells, PE goat anti-human Fc
[3] = target: T1, Human CD3 epsilon&CD3 delta Heterodimer Protein (human, UniProt P07766 23-126; P04234 22-105); assay: ELISA, CD3 epsilon/delta heterodimer coated at 50 ng/mL, HRP goat anti-human Fc
T1 construct: Bought heterodimer; also called Human CD3 epsilon&CD3 delta Heterodimer蛋白; CD3抗原
T1 sequence (P07766 23-126, stated change not applied, chain 1 of 2): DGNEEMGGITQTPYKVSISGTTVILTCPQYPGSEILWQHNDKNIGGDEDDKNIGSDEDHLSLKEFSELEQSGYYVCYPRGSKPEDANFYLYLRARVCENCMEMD
T1 sequence (P04234 22-105, stated change not applied, chain 2 of 2, further chain): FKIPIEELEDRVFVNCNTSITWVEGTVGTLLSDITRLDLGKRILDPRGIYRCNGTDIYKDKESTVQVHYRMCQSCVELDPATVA

Row | Binder | EC 50 [1] | Top [1] | binding result [2] | binding result [3]
1 | anti-MUC17×CD3 BsAb CM1 (bispecific antibody, human IgG1, kappa, copies follow the symmetric IgG format (structure A: 2 heavy, 2 light)) heavy: QVQLVQSGAEVKKPGASVKVSCKASGYSFTIYWMHWVRQAPGQGLEWIGMSHPSDSESRLNQKFKDRATLTVDKSTSTAYMELSSLRSEDTAVYYCSRPYYGSSAWFADWGQGTLVTVSA[human IgG1 constant region not printed]GGGGSGGGGSGGGGSQAVVTQEPSLTVSPGGTVTLTCRSSTGAVTTSNYANWVQQKPGQAPRGLIGGTNKRAPGVPARFSGSLLGGKAALTLSGAQPEDEAEYYCALWYSNLWVFGQGTKVEIKGGGGSGGGGSGGGGSGGGGSEVQLVESGGGLVQPGGSLRLSCAASGFTFNTYAMNWVRQAPGKGLEWVARIRSKYNNYATYYADSVKDRFTISRDDSKNTLYLQMNSLRAEDTAVYYCVRHGNFGNSYVSWFAYWGQGTLVTVSS light: DIVMTQSPDSLAVSLGERATINCKSSQSLLNSSNQKNYLAWYQQKPGQSPKLLIYFASTRESGVPDRFSGSGSGTDFTLTISSLQAEDVAVYYCQQHYSFPLTFGAGTKLELRRTVAAPSVFIFPPSDEQLKSGTASVVCLLNNFYPREAKVQWKVDNALQSGNSQESVTEQDSKDSTYSLSSTLTLSKADYEKHKVYACEVTHQGLSSPVTKSFNRGEC | 4.95 nM | 28300 | binds | binds
2 | anti-MUC17×CD3 BsAb CM2 (bispecific antibody, human IgG1, kappa) heavy: QVQLVQSGAEVKKPGASVKVSCKASGYSFTIYWMHWVRQAPGQGLEWIGMSHPSDSESRLNQKFKDRATLTVDKSTSTAYMELSSLRSEDTAVYYCSRPYYGSSAWFADWGQGTLVTVSA[human IgG1 constant region not printed]GGGGSGGGGSGGGGSEVQLVESGGGLVQPGGSLRLSCAASGFTFNTYAMNWVRQAPGKGLEWVARIRSKYNNYATYYADSVKDRFTISRDDSKNTLYLQMNSLRAEDTAVYYCVRHGNFGNSYVSWFAYWGQGTLVTVSSGGGGSGGGGSGGGGSGGGGSQAVVTQEPSLTVSPGGTVTLTCRSSTGAVTTSNYANWVQQKPGQAPRGLIGGTNKRAPGVPARFSGSLLGGKAALTLSGAQPEDEAEYYCALWYSNLWVFGQGTKVEIK light: DIVMTQSPDSLAVSLGERATINCKSSQSLLNSSNQKNYLAWYQQKPGQSPKLLIYFASTRESGVPDRFSGSGSGTDFTLTISSLQAEDVAVYYCQQHYSFPLTFGAGTKLELRRTVAAPSVFIFPPSDEQLKSGTASVVCLLNNFYPREAKVQWKVDNALQSGNSQESVTEQDSKDSTYSLSSTLTLSKADYEKHKVYACEVTHQGLSSPVTKSFNRGEC | 4.8 nM | 54400 | – | binds
3 | anti-MUC17×CD3 BsAb CM3 (bispecific antibody, human IgG1, kappa) heavy: EVQLVESGGGLVQPGGSLRLSCAASGFTFNTYAMNWVRQAPGKGLEWVARIRSKYNNYATYYADSVKDRFTISRDDSKNTLYLQMNSLRAEDTAVYYCVRHGNFGNSYVSWFAYWGQGTLVTVSSGGGGSGGGGSGGGGSGGGGSQAVVTQEPSLTVSPGGTVTLTCRSSTGAVTTSNYANWVQQKPGQAPRGLIGGTNKRAPGVPARFSGSLLGGKAALTLSGAQPEDEAEYYCALWYSNLWVFGQGTKVEIKGGGGSGGGGSGGGGSQVQLVQSGAEVKKPGASVKVSCKASGYSFTIYWMHWVRQAPGQGLEWIGMSHPSDSESRLNQKFKDRATLTVDKSTSTAYMELSSLRSEDTAVYYCSRPYYGSSAWFADWGQGTLVTVSA[human IgG1 constant region not printed] light: DIVMTQSPDSLAVSLGERATINCKSSQSLLNSSNQKNYLAWYQQKPGQSPKLLIYFASTRESGVPDRFSGSGSGTDFTLTISSLQAEDVAVYYCQQHYSFPLTFGAGTKLELRRTVAAPSVFIFPPSDEQLKSGTASVVCLLNNFYPREAKVQWKVDNALQSGNSQESVTEQDSKDSTYSLSSTLTLSKADYEKHKVYACEVTHQGLSSPVTKSFNRGEC | 1.76 nM | 28400 | binds | binds
4 | anti-MUC17×CD3 BsAb CM4 (bispecific antibody, human IgG1, kappa) heavy: QAVVTQEPSLTVSPGGTVTLTCRSSTGAVTTSNYANWVQQKPGQAPRGLIGGTNKRAPGVPARFSGSLLGGKAALTLSGAQPEDEAEYYCALWYSNLWVFGQGTKVEIKGGGGSGGGGSGGGGSGGGGSEVQLVESGGGLVQPGGSLRLSCAASGFTFNTYAMNWVRQAPGKGLEWVARIRSKYNNYATYYADSVKDRFTISRDDSKNTLYLQMNSLRAEDTAVYYCVRHGNFGNSYVSWFAYWGQGTLVTVSSGGGGSGGGGSGGGGSQVQLVQSGAEVKKPGASVKVSCKASGYSFTIYWMHWVRQAPGQGLEWIGMSHPSDSESRLNQKFKDRATLTVDKSTSTAYMELSSLRSEDTAVYYCSRPYYGSSAWFADWGQGTLVTVSA[human IgG1 constant region not printed] light: DIVMTQSPDSLAVSLGERATINCKSSQSLLNSSNQKNYLAWYQQKPGQSPKLLIYFASTRESGVPDRFSGSGSGTDFTLTISSLQAEDVAVYYCQQHYSFPLTFGAGTKLELRRTVAAPSVFIFPPSDEQLKSGTASVVCLLNNFYPREAKVQWKVDNALQSGNSQESVTEQDSKDSTYSLSSTLTLSKADYEKHKVYACEVTHQGLSSPVTKSFNRGEC | 3.17 nM | 24000 | binds | binds
